# Screen size: about 390,000 compounds; about 910 (0.23%) were called active. Not shown: some 5% with an inconclusive outcome. The call rests on the fitted dose curve; in most records, active means well fitted inhibition curve with a large enough effect; inconclusive means small, poorly fitted or top-dose-only effect; inactive means no such curve, though single readings can be large or run the other way. Only a part is listed here, and it is no random draw.
# Target: Ubiquitin carboxyl-terminal hydrolase 1 (Homo sapiens) (UniProt O94782)
# Experiment: Inhibitors of USP1/UAF1: Primary Screen; further: nearly all actives have a fitted effect of over 60% in size
# Settings: recombinant USP1/UAF1, Ub-Rhodamine cleavage fluorescence; activity change, negative = inhibition: at 57.1 µM (top of the series)
# Outline: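 USP1/UAF1 complex (1 nM) preincubated 15 min at room temperature with compound, then Ub-Rho substrate (150 nM final) added. Kinetic fluorescence at 480/540 nm over 6 reads at 60 s intervals; 50 mM HEPES pH 7.8, 0.5 mM EDTA, 0.1 mg/ml BSA, 1 mM TCEP, 0.01% Tween-20.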
# On the % scale 0 is the no-effect control and ±100 the full control effect; potency means the concentration at half of the fitted maximal effect.
# UniProt O94782, sequence (O94782 whole entry, looked up): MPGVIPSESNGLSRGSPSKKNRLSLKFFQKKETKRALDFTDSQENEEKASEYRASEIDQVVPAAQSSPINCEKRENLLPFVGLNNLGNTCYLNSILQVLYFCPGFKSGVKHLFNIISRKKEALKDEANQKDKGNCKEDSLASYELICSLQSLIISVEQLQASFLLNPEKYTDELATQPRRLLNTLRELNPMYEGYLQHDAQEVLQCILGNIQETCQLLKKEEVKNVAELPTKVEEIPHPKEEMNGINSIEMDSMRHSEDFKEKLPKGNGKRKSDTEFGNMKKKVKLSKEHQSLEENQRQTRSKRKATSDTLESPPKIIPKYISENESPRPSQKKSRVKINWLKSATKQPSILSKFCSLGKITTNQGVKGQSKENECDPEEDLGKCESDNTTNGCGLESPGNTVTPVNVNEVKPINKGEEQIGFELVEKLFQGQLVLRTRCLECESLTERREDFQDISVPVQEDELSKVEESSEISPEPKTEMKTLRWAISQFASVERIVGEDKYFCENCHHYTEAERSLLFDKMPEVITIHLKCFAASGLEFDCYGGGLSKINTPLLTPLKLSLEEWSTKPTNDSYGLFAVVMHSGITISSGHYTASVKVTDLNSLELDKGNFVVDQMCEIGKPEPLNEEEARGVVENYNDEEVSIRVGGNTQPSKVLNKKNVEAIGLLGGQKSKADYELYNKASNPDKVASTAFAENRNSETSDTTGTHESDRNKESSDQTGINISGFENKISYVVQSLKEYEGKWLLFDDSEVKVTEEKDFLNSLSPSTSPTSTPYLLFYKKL
SMILES,"activity change, negative = inhibition",Potency
c1ccc(CCCc2nc(-c3ccccn3)no2)cc1,inactive: 29.5%,
O=C(c1ccco1)[C@@H]1[C@@H]2C(=O)N(c3ccc(Br)cc3)C(=O)[C@@H]2C2c3ccccc3C=CN21 (some centres undefined),,active: 15.8 µM
N#C/C(=C/C1=C(N2CCOCC2)C(=C/c2ccccc2)/CC1)C(=O)Nc1ccccc1F,inactive: -7.87%,
C[C@@H]1COC(=O)[C@@H](CC(=O)OC(C)(C)C)C/C=C\C[C@@H](CC(=O)N(CCO)Cc2ccccc2)C(=O)N1,inactive: -21.1%,
C[C@@H]1CN([C@H](C)CO)C(=O)CCCn2nncc2CO[C@@H]1CN(C)S(=O)(=O)c1ccc(Cl)cc1,inactive: -19.7%,
Cc1cccc(CNC(=O)Cn2ccc3cc(S(=O)(=O)N4CCCC4)ccc32)c1,inactive: -7.59%,
O=C(C[C@@H]1C/C=C\C[C@H](NC(=O)OCC2c3ccccc3-c3ccccc32)C(=O)OC[C@@H]2CCCN2C1=O)N[C@@H](CO)Cc1ccccc1,inactive: -7.36%,
CC(=O)Oc1oc(-c2ccccc2)nc1C=Nc1ccc(N(C)C)cc1,,active: 25.1 µM
Cc1cccc(N2C(=O)c3cccc4c(N)ccc(c34)C2=O)c1,,active: 28.2 µM
CCC(C)OC(=O)/C(C#N)=C\c1ccc(-c2ccccc2Cl)o1 (centres undefined),inactive: 72.1%,
CC(=O)n1c(C=Nc2ccc(Cl)cc2)c(O)c2ccccc21,inactive: -12.1%,
CCN(CC)c1ccc(/C=C(/C#N)C(=O)NC(C)C)o1,,active: 25.1 µM
CC[C@]12CCCN3CCc4c(n(c5ccccc45)[C@@](O)(C(=O)OC)C1)[C@@H]32,inactive: -17.6%,
CC1C(=O)N2CCCc3cc(S(=O)(=O)N4CCC(C(N)=O)CC4)cc1c32 (centres undefined),inactive: -9.55%,
C[C@@H]1CN([C@@H](C)CO)C(=O)CCCn2cc(nn2)CO[C@H]1CN(C)S(=O)(=O)c1ccc(Oc2ccccc2)nc1,inactive: -25.7%,
C[C@@H]1CN([C@H](C)CO)C(=O)CCCn2cc(nn2)CO[C@H]1CN(C)S(=O)(=O)c1ccc2ccccc2c1,inactive: -18%,
CCCC(=O)Nc1nnc(S(=O)(=O)N2CCCCCC2)s1,inactive: -8.46%,
C[C@@H]1CCC[C@]2(O[C@@H](CCO)C[C@H](O)[C@H]2O)O1,inactive: 2.8%,
Nc1ccn([C@@H]2O[C@H](CO)[C@@H](O)[C@H]2O)c(=O)n1,inactive: -24%,
CN(C)CCC(c1ccccc1)c1ccccn1 (centres undefined),,inactive
O=C(COc1ccc(F)cc1)Nc1ccc(Cl)c(-c2nc3ccccc3[nH]2)c1,inactive: 40.1%,
C[C@@H]1CN([C@@H](C)CO)C(=O)CCCn2nncc2CO[C@H]1CN(C)Cc1ccc2c(c1)OCCO2,inactive: -15.7%,

SMILES,"activity change, negative = inhibition",Potency
CSc1ccc(C2C(C(=O)c3ccco3)=C(O)C(=O)N2c2nnc(SC)s2)cc1 (centres undefined),inactive: 64.1%,
CCN(CC)C(=O)COc1ccc(-c2nnc(Nc3ccc(OC)c(C(=O)NC)c3)c3ccccc23)cc1,inactive: 0.0131%,
CCc1ccc(NC(=O)c2cc(C)nn2-c2ccccc2)cc1,inactive: -19.4%,
COc1ccccc1N1CCN(S(=O)(=O)c2c(C)sc3ncn(CC(=O)NCCN(C)C)c(=O)c23)CC1,inactive: -25.5%,
COc1cccc(S(=O)(=O)N(C)C[C@@H]2OCc3cnnn3CCCC(=O)N([C@H](C)CO)C[C@@H]2C)c1,inactive: -26.2%,
C[C@@H]1CN([C@H](C)CO)C(=O)CCCn2cc(nn2)CO[C@H]1CN(C)C(=O)Nc1ccccc1,inactive: -23.6%,
C=CC[C@@H](Cc1ccc(F)cc1)C(=O)OC[C@H]1CCCN1C(=O)[C@@H](CC=C)CC(=O)N[C@H](CO)Cc1ccccc1,inactive: -9.05%,
Cc1ccc(C(C(=O)NCc2ccccc2)N(C(=O)c2ccccn2)c2ccccc2)o1 (centres undefined),inactive: -10.4%,
CCC(=O)Nc1nnc(S(=O)(=O)N2CCCCCC2)s1,inactive: 3.34%,
CCOC(=O)c1oc2c(c1C)-c1nn(Cc3ccccc3Cl)cc1CC2,inactive: 19.6%,
CCOC(=O)c1c(C)[nH]c(C(=O)OC/C(O)=C(\C#N)c2nc3ccccc3[nH]2)c1C,inactive: -20.1%,
Cc1[nH][nH]c(=O)c1C(c1c(C)[nH][nH]c1=O)c1cn(Cc2cccc3ccccc23)c2ccccc12,,active: 14.1 µM
COc1ccc(C(C)n2c(C)c3c(C)nnc(C)c3c2C)cc1 (centres undefined),inactive: -6.19%,
CN(C(=O)CN1C(=O)CCSc2ccc(S(=O)(=O)N3CCCC3)cc21)c1ccccc1,inactive: -17.1%,
COc1ccc(OC)c(/C=C/c2nc3ccccc3[nH]c2=O)c1,inactive: 180%,
COc1ccccc1-n1c(/C=C/c2c(C)n(C)c3ccccc23)nc2ccccc2c1=O,inactive: 44.7%,
COc1ccc(CN(C(=O)c2cc3ccccc3oc2=O)C2CCS(=O)(=O)C2)cc1OC (centres undefined),inactive: 2.07%,
CC(C)(C)OC(=O)N[C@H]1C=C[C@H](OC(=O)CC(=O)OCC(F)(F)F)C1,inactive: -3.99%,
Nc1ccc2nc3c(=O)n(C4CCCCC4)c(=O)[nH]c3nc2c1,inactive: 102%,
C[C@@H]1CN([C@H](C)CO)C(=O)CCCn2nncc2CO[C@H]1CN(C)C(=O)c1ccccc1,inactive: -30%,
CCc1ccc(C(=O)CC2(O)C(=O)N(Cc3ccc(C)cc3)c3ccccc32)cc1 (centres undefined),inactive: 32.5%,
CC(=O)Nc1ccc(N=Cc2c(O)c(C(=O)Nc3ccccc3)cc3ccccc23)cc1,inactive: -5.71%,

# — PubChem BioAssay AID743255 (National Center for Advancing Translational Sciences (NCATS), 2014)
